Laboratory results as given in publication PMC10965988.

B1: PDGFRα wild type truncated after residue R979, fused to nanoluciferase or HaloTag [not stated] / itself (parent)
chain: QLSLPSILPNENEKVVQLNSSFSLRCFGESEVSWQYPMSEEESSDVEIRNEENNSGLFVTVLEVSSASAAHTGLYTCYYNHTQTEENELEGRHIYIYVPDPDVAFVPLGMTDYLVIVEDDDSAIIPCRTTDPETPVTLHNSEGVVPASYDSRQGFNGTFTVGPYICEATVKGKKFQTIPFNVYALKATSELDLEMEALKTVYKSGETIVVTCAVFNNEVVDLQWTYPGEVKGKGITMLEEIKVPSIKLVYTLTVPEATVKDSGDYECAARQATREVKEMKKVTISVHEKGFIEIKPTFSQLEAVNLHEVKHFVVEVRAYPPPRISWLKNNLTLIENLTEITTDVEKIQEIRYRSKLKLIRAKEEDSGHYTIVAQNEDAVKSYTFELLTQVPSSILDLVDDHHGSTGGQTVRCTAEGTPLPDIEWMICKDIKKCNNETSWTILANNVSNIITEIHSRDRSTVEGRVTFAKVEETIAVRCLAKNLLGAENRELKLVAPTLRSELTVAAAVLVLLVIVIISLIVLVVIWKQKPRYEIRWRVIESISPDGHEYIYVDPMQLPYDSRWEFPRDGLVLGRVLGSGAFGKVVEGTAYGLSRSQPVMKVAVKMLKPTARSSEKQALMSELKIMTHLGPHLNIVNLLGACTKSGPIYIITEYCFYGDLVNYLHKNRDSFLSHHPEKPKKELDIFGLNPADESTRSYVILSFENNGDYMDMKQADTTQYVPMLERKEVSKYSDIQRSLYDRPASYKKKSMLDSEVKNLLSDDNSEGLTLLDLLSFTYQVARGMEFLASKNCVHRDLAARNVLLAQGKIVKICDFGLARDIMHDSNYVSKGSTFLPVKWMAPESIFDNLYTTLSDVWSYGILLWEIFSLGGTPYPGMMVDSTFYNKIKSGYRMAKPDHATSEVYEIMVKCWNSEPEKRPSFYHLSEIVENLLPGQYKKSYEKIHLDFLKSDHPAVAR

Variants of: B1
Test: NanoBRET
Settings: with itself; Control (no PDGF-BB); living cells; mean of four independent experiments; parent: 1; read off a plot

response [BRET Ratio]	Variant
1.9	chain 1 K362I

Same assay, conditions: with itself; PDGF-BB stimulated; living cells; mean of four independent experiments; parent: 2; read off a plot

response [BRET Ratio]	Variant
1.8	chain 1 K362I
